Experimental data as given in ChEMBL document CHEMBL4888484, “Replenishing the malaria drug discovery pipeline: Screening and hit evaluation of the MMV Hit Generation Library 1 (HGL1) against asexual blood stage Plasmodium falciparum ,using a nano luciferase reporter read-out” (2022).
Hit rate of the full screen: of about 150,000 compounds, about 540 (0.36%) showed an effect of 50% or more. The list shows a part of the results.

tested on: Plasmodium falciparum; assay: Primary screen in NF54 nanoGlo assay, in single point, at 2uM, 72h; a lower Z score goes with more inhibition; format: functional, Erythrocyte; details: timepoint 72 hour

Row | SMILES | % Inhibition [%] | Z score
1 | Cc1ccc(Cc2nc(N3CCN(C(=O)c4ccccc4Cl)CC3)c3c(C)nn(-c4ccc(F)cc4)c3n2)cc1 | -12 | 1.65
2 | COc1c(F)cc(-c2ccc(C(=O)N(C)C3CCOCC3)cc2)cc1F | 3 | -0.38
3 | CCCCOC(=O)Nc1nnc(CC(=O)NCc2ccccc2)s1 | -9 | 1.73
4 | c1nnnn1CCc1nc(C2CC2)n[nH]1 | -11 | 1.8
5 | O=C(NS(=O)(=O)Oc1ccc(F)cc1F)OC[C@@H]1CCCN2CCCCC12 (stereo partly specified) | 3 | -0.35
6 | CC(C)(C)OC(=O)N=C(NC(=O)OC(C)(C)C)n1cccn1 | -17 | 1.44
7 | COc1cc2c(cc1OC)CN(C(=O)C[C@@H]1NC(=O)N(Cc3ccc(Cl)cc3)C1=O)CC2 | -12 | 1.48
8 | O=C1CO[C@H]2CN(C3CCCCC3)C[C@H]2N1c1ccccc1 | 4 | -0.51
9 | O=C(Cn1nc(-c2ccccc2)cc(NC(=O)c2ccccc2)c1=O)Nc1cccc(F)c1 | -4 | 0.68
10 | CCC1(C(=O)N2CCCC(COC)C2)CCCN1 (stereo unspecified) | -12 | 1.68
11 | COc1cc(CN)ccc1OC(C)(C)C | 2 | -0.36
12 | CCC(=O)N1CCCC[C@H]1c1nnc2n1CCN(S(=O)(=O)c1cccnc1)CC2 | 13 | -1.88
13 | COCCn1nnnc1[C@]1(N2CCCC2)CCN(C(=O)c2ccc3ncccc3c2)C1 | -2 | 0.29
14 | CC(C)C1CCN1C(=O)CC1CN(C(=O)c2ccco2)CCS1(=O)=O (stereo unspecified) | 0 | 0.01
15 | CC[C@@H](NC(=O)N1CCc2nc(C)[nH]c(=O)c2CC1)c1ccccc1 | -7 | 0.92
16 | O=C(Nc1nncs1)[C@@H]1CCCCS1(=O)=O | -8 | 0.76
17 | CCCOc1ccc(N2C(=O)C3ON(c4ccccc4)C(CC(C)C)C3C2=O)cc1 (stereo unspecified) | 1 | -0.06
18 | COc1ccccc1OCc1nc(C2CC2)n(C(C)(C)C)n1 | -2 | 0.39
19 | COc1ncccc1C(=O)NCC1CC1 | 0 | -0.01
20 | CC(C)CN(CC(C)C)C(=O)[C@@H]1CCCO1 | -3 | 0.34
21 | Cc1cc(NC(=O)Cn2ncc3cccnc32)n(C2CCCC2)n1 | 1 | -0.1
22 | O=C(NCC(c1ccco1)N1CCCC1)N1CCCC(c2nc3ccccc3s2)C1 (stereo unspecified) | 2 | -0.3
23 | Cc1ccc2c(c1)OCCN2S(=O)(=O)c1cnnn1C | -8 | 0.84
24 | COc1ccc(C(=O)N2CC(=O)N3C[C@@H](OC)C[C@H]3C2)cn1 | -17 | 2.59
25 | O=C(CCn1c(Cc2ccccc2Cl)nc2cc(Cl)c(Cl)cc21)NCCN1CCOCC1 | -6 | 1.07
26 | Fc1ccc(-c2nnc(CN3CCCC4(C3)OCCO4)o2)cc1 | 0 | 0
27 | CN(CC(C)(CO)CO)C(=O)c1cc(C2CCCCC2)n[nH]1 | 4 | -0.45

Row | SMILES | % Inhibition [%] | Z score
28 | CO[C@H]1C[C@@H](CO)N(S(=O)(=O)c2c(Cl)cc(C)c(O)c2C)C1 | -3 | 0.64
29 | C[C@H]1CCC[C@@H](C(=O)O)N1C(=O)OC(C)(C)C | -17 | 1.7
30 | COc1ccc(NS(=O)(=O)c2ccc(NC(=O)CN(c3ccc(F)cc3)S(C)(=O)=O)cc2)cc1 | 36 | -1.14
31 | Cn1nc2c(c1-c1nc(COc3cccc(F)c3)nn1CCO)CCCC2 | -13 | 1.49
32 | CCc1nc(C)ccc1OCc1nc(C2CC2)n[nH]1 | 3 | -0.45
33 | CCn1cc(OCC(=O)N(C)CC(F)(F)F)cn1 | -7 | 1.31
34 | COC1(CNc2nc(C3CC3)nc3[nH]ccc23)CCOCC1 | -2 | 0.42
35 | CCC(=O)N(CC(=O)N1CCc2sccc2C1COc1ccc(F)cc1)CC1CCCO1 (stereo unspecified) | -8 | 0.82
36 | COc1ccc(OC)c(S(=O)(=O)N2CC(=O)N3C[C@@H](OC)C[C@H]3C2)c1 | -3 | 0.49
37 | CC(C)(O)CC(=O)N1CCC2(CCN(Cc3ccccc3)CC2)CC1 | 21 | -2.63
38 | O=C(O)CCC(=O)N1Cc2nc[nH]c2C[C@H]1c1nc(-c2ccc(C(F)(F)F)cc2)no1 | 7 | -0.85
39 | O=C(COc1ccccc1)N1CCC(F)(C(=O)NCc2ccccc2)CC1 | -6 | 0.8
40 | COc1ccc(-c2cn3c(n2)CO[C@@H](CNS(C)(=O)=O)C3)cc1 | -8 | 1.25
41 | Cc1cc(-n2cnnc2)ncc1-c1ccnn1C | -8 | 1.08
42 | COCCN(C(=O)c1cc(Cl)cc(Cl)c1O)[C@H]1CCOC1 | -1 | 0.19
43 | O=C(N/C(=N/c1ccccc1)NC[C@H]1CCCO1)c1ccc(C(F)(F)F)cc1 | -20 | 1.81
44 | CC(C)N1C(=O)NC2(CCN(CC(O)c3cccc(F)c3)C2)C1=O (stereo unspecified) | -9 | 0.95
45 | CS(=O)(=O)c1ccc(NC(=O)N2CCC3CCCCC32)cc1F (stereo unspecified) | -6 | 1.19
46 | CC[C@@H]1C(=O)NCCCN1C(=O)Cn1nc(C(F)F)cc1C1CC1 | 17 | -2.1
47 | C[C@@H](CN1CCCC1)OC(=O)c1ccc(Cl)cc1Cl | 28 | -3.19
48 | Cc1ccc2c(NC(=O)Cc3ccccc3)c(C)ccc2n1 | -6 | 0.91
49 | C[C@@H](C(=O)Nc1nccs1)N(C)Cc1noc(-c2ccccc2)n1 | 0 | -0.08
50 | CC(=O)Nc1ccc(C)cc1-c1nc2ccccc2n(CC(=O)Nc2ccc3c(c2)OCO3)c1=O | 13 | -2.15
51 | CN1C(=O)[C@@H]2CCCCN2c2ccc(C(=O)NCCc3c[nH]c4ccccc34)cc21 | -1 | 0.08
52 | CC1(C)CC(=O)N(Cc2cnn(-c3ccccc3)n2)C1=O | -12 | 1.61
53 | Cc1nn(C)cc1C(=O)NC1(C(F)F)CC1 | -19 | 1.84
